Test results taken from a compilation of properties of binary mixtures (doi:10.1016/j.jct.2023.107038).
The densities may have been worked out from excess volumes.

Experiment: xn = mol fraction of the nth substance listed
Settings: 96.7 kPa

OCC(F)(F)F + CC(=O)[O-].CC[n+]1ccn(C)c1
mass density [kg/m3]
Settings | 293.15 K | 298.15 K | 303.15 K | 308.15 K | 313.15 K | 318.15 K | 323.15 K | 328.15 K | 333.15 K
x1 = 0.048 | 1110.2 | – | – | 1100.9 | 1097.8 | 1094.7 | 1091.7 | 1088.7 | 1085.6
x1 = 0.103 | 1117.7 | 1114.6 | 1111.4 | 1108.2 | 1105.1 | 1102 | 1098.8 | 1095.7 | –
x1 = 0.204 | – | 1130.6 | 1127.3 | – | 1120.7 | 1117.3 | 1114 | 1110.8 | 1107.5
x1 = 0.298 | 1152.4 | 1148.8 | 1145.3 | 1141.8 | 1138.2 | 1134.7 | 1131.3 | – | 1124.4
x1 = 0.402 | 1173.4 | – | – | 1162.1 | 1158.4 | 1154.6 | – | 1147.2 | 1143.5
x1 = 0.603 | – | 1221 | 1216.5 | 1212 | 1207.6 | – | 1198.7 | 1194.3 | –
x1 = 0.801 | 1296.9 | 1291.4 | 1285.7 | 1280.3 | – | 1269.2 | – | 1258.2 | 1252.7
x1 = 1 | 1390.9 | 1382.5 | 1373.9 | 1365.2 | – | 1347.5 | 1338.4 | 1329.1 | –

CC(=O)[O-].CC[n+]1ccn(C)c1 + OCC(F)(F)F
x2 = 0
Settings | mass density [kg/m3]
293.15 K | 1103.2
298.15 K | 1100
303.15 K | 1097.1
308.15 K | 1094.1
323.15 K | 1085.1
328.15 K | 1082.1
333.15 K | 1079.1

CC[n+]1ccn(C)c1.O=S(=O)([N-]S(=O)(=O)C(F)(F)F)C(F)(F)F + OCC(F)(F)F
x2 = 0
Settings | mass density [kg/m3]
293.15 K | 1523.3
298.15 K | 1518.3
303.15 K | 1513.3
318.15 K | 1498.3
323.15 K | 1493.4
328.15 K | 1488.4
333.15 K | 1483.5

OCC(F)(F)F + CC[n+]1ccn(C)c1.O=S(=O)([N-]S(=O)(=O)C(F)(F)F)C(F)(F)F
mass density [kg/m3]
Settings | 293.15 K | 298.15 K | 303.15 K | 308.15 K | 313.15 K | 318.15 K | 323.15 K | 328.15 K | 333.15 K
x1 = 0.051 | – | 1516.8 | 1511.8 | 1506.7 | – | 1496.7 | 1491.7 | 1486.8 | 1481.9
x1 = 0.099 | 1520 | 1514.9 | 1509.8 | 1504.8 | 1499.7 | 1494.7 | – | 1484.7 | 1479.7
x1 = 0.204 | 1516.2 | 1511 | 1505.8 | – | 1495.3 | 1490.3 | 1485.2 | 1480 | 1474.7
x1 = 0.303 | – | 1506.1 | 1500.9 | 1495.6 | 1490.3 | 1485.1 | 1479.9 | 1474.4 | 1469.3
x1 = 0.396 | – | 1500 | 1494.5 | 1489.1 | – | 1478.4 | 1473 | 1467.7 | –
x1 = 0.599 | 1488.5 | 1482.7 | – | 1471.1 | 1465.3 | – | 1453.8 | 1448 | 1442.3
x1 = 0.799 | – | 1451.7 | 1445.1 | 1438.6 | 1432 | 1425.4 | 1418.8 | – | 1405.7
x1 = 1 | 1390.9 | 1382.5 | 1373.9 | – | 1356.4 | 1347.5 | 1338.4 | 1329.1 | –
